Literature values, collected in article PMC11006913.
The other results are listed elsewhere or left out.

Target: HOXD13 I322L (Homo sapiens) (UniProt P35453)
Conditions: PBM; conditions not shown; double strand, one strand shown; scale: upbm affinity estimate (log intensity, higher = more binding, comparable within an allelic series)

Chain of UniProt P35453 (P35453 263-343 I322L): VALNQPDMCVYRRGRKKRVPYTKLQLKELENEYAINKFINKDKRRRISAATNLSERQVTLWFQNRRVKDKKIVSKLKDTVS

Row | Sequence | binding signal
1 | GTCGTTAA [8-mer GTCGTTAA] | 12.2
2 | AATTACGA [8-mer AATTACGA] | 11.8
3 | ATTACAAG [8-mer ATTACAAG] | 11.9
4 | TAGTAAAA [8-mer TAGTAAAA] | 12
5 | GCTGTAAA [8-mer GCTGTAAA] | 11.9
6 | CGTTAAAC [8-mer CGTTAAAC] | 11.9
7 | GTTGTTAA [8-mer GTTGTTAA] | 11.9
8 | CCCGTTAA [8-mer CCCGTTAA] | 11.8
9 | CCGTAAAC [8-mer CCGTAAAC] | 12
10 | CTTGTTAA [8-mer CTTGTTAA] | 12.3
11 | TCTTGTAA [8-mer TCTTGTAA] | 12
12 | CATTTAAA [8-mer CATTTAAA] | 11.7
